# Reference: the RNAGym collection of RNA variant scans (doi:10.1093/nar/gkz1192)
# The source gives no read counts; variants with many changes may rest on few reads.
# B1: CPEB3 Ribozyme (parent)
# chain: UAACAGGGGGCCACAGCAGAAGCGUUCACGUCGCAGCCCCUGUCAGAUUCUGGUGAAUCUGCGAAUUCUGCUGUAUAUCUC
# Variants of: B1
# Assay: self-cleavage, relative activity (ratio to wild type); higher = more cleavage; in vitro, sequencing
# How it was run: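 Relative activity was defined as the cleaved/total read fraction for a variant divided by the same fraction for the unmutated ribozyme. CPEB3 self-cleaving ribozyme libraries were made by rounds of error-prone PCR, barcoded, and transcribed in vitro with T7 RNA polymerase for 5 hours at 37°C, and cleavage ran through transcription plus a 15 min DNase I step before EDTA. Illumina sequencing of template-switched reverse transcripts gave the reads, and DNA sequencing mapped the barcodes. Averages come from three batches, using variants with at least 5 reads.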
row,Variant,self-cleavage
1,A35U U48A U69C C81U,0.1
2,A35U U48C A57G,0.64
3,A35U U48C U54A A56U U67A U69A,0.1
4,A35U U48C U69C,0.41
5,A35U U49A A57G,0.46
6,A35U U49A G53A,0.2
7,A35U U49A U60C,0.19
8,A35U U49A U60C A65U,0.11
9,A35U U49A U66C U80G,0.06
10,A35U U49C A64G U69C,0.09
11,A35U U49C A64U,0.15
12,A35U U49C C59A,0.09
13,A35U U49C U60C U67C,0.09
14,A35U U49C U69C,0.11
15,A35U U49C U69C A77G,0.08
16,A35U U51A A57U U58C,0.35
17,A35U U51A U54C,0.4
18,A35U U51A U60C,0.43
19,A35U U51A U76A,0.63
20,A35U U51C U72C,0.54
21,A35U U51G A65G A77G U78C,0.11
22,A35U U54C A64U,0.12
23,A35U U54C A65U,0.12
24,A35U U54C A77U,0.41

row,Variant,self-cleavage
1,A35U U54C U58A A64U,0.11
2,A35U U54C U66C U69C,0.33
3,A35U U54C U69C,0.13
4,A35U U58A C59U,0.13
5,A35U U58A U80C,0.18
6,A35U U58C A64G U76C U80A,0.05
7,A35U U58C A65G A77G,0.1
8,A35U U58C U60A U76C,0.08
9,A35U U60A A65U U66C A75G,0.11
10,A35U U60C A64G U74A,0.09
11,A35U U60C A65G,0.41
12,A35U U66C C71A U72A A77G,0.07
13,A35U U66C U67A U74C U80C,0.18
14,A35U U66C U72C,0.21
15,A35U U67C U72A,0.1
16,G36A A45U U66C,0.04
17,G36A A47G A64U,0.21
18,G36A A47U U67C,0.1
19,G36A A56G U60C U66C,0.13
20,G36A A56G U60C U80C,0.11
21,G36A A64G U69C U80C,0.15
22,G36A A65G U80A,0.14
23,G36A C39A C40U A56U U74C A77U,0.07
24,G36A C39A U41C,0.16

row,Variant,self-cleavage
1,G36A C40U U60A,0.1
2,G36A G42U A45G,0.32
3,G36A G46U U58A,0.08
4,G36A U41A A77G,0.11
5,G36A U41A U51C U74C,0.17
6,G36A U41C U43C U51A U54A,0.2
7,G36A U41C U66C,0.37
8,G36A U43C A57G U66C,0.14
9,G36A U43C U66C,0.08
10,G36A U49A U72A U76A,0.11
11,G36A U49C U51C A56G A75G A77G,0.27
12,G36A U51C G61A U69A,0
13,G36A U58C U69A,0.08
14,G36A U60A U78C,0.12
15,G36A U60C U72C,0.1
16,G36C A45G U72C U78C,0.13
17,G36C A47U U54C U78C,0.05
18,G36C U43A U58A,0.08
19,G36C U43C A47G A56G,0.18
20,G36C U49C U69C,0.08
21,G36C U49C U69G,0.12
22,G36C U54C A57G U58A,0.1
23,G36U A47U U60A U72A U80C,0.13
24,G36U A57G U76C,0.14

row,Variant,self-cleavage
1,G36U C38G U41G,0.24
2,G36U U43C A77G U78A,0.12
3,G36U U60C A64C U80A,0.06
4,C37A A45G U48C U60A A65U,0.09
5,C37A A47U U54G,0.15
6,C37A A56G U66G,0.1
7,C37A A56G U72C,0.11
8,C37A A57U U74C,0.11
9,C37A C39A U60A U69A U72C,0.17
10,C37A C44U A45G U60A,0.14
11,C37A G70C U72C,0.12
12,C37A U41A U43C A56G,0.16
13,C37A U43C U54C,0.16
14,C37A U48C U54C U72C,0.1
15,C37A U51C A57G A64G U74A U80C,0.05
16,C37A U51C U58A,0.11
17,C37A U60C A65G,0.14
18,C37A U74A U78C,0.12
19,C37G A47U A57G,0.05
20,C37G C40A G42U,0.07
21,C37G U41A C44A U80C,0.09
22,C37G U48A A65G,0.47
23,C37G U49C U51C,0.34
24,C37G U49C U54C,0

row,Variant,self-cleavage
1,C37G U49C U80C,0.3
2,C37G U51C U69C,0.21
3,C37G U60C G61U A77G,0.13
4,C37G U69C U72A,0.25
5,C37U A45G U74A,0.81
6,C37U A47G A57G,0.47
7,C37U A47G U60C,0.16
8,C37U A56G A65G,0.18
9,C37U A56U U60C U80A,0.12
10,C37U A57G U67C,0.14
11,C37U A64G U66C,0.11
12,C37U C38G A64G,0.11
13,C37U C38G U43A,0.34
14,C37U C38U U48C,0.18
15,C37U G63U U80C,0.99
16,C37U U41A A57U,0.33
17,C37U U41A U43A U58C,0.09
18,C37U U43C U48A A65U,0.07
19,C37U U43C U51C A64G U74C,0.2
20,C37U U43C U54G,0.25
21,C37U U43C U60A U69C U72A,0.06
22,C37U U43C U72A,0.39
23,C37U U43C U72A U78A,0.1
24,C37U U48A A75G,0.31

row,Variant,self-cleavage
1,C37U U48A U60C,0.14
2,C37U U48G U49C A64U G73U,0.09
3,C37U U49C A64G U66A A77U,0.09
4,C37U U49C G53U U66C U80C,0.1
5,C37U U51A A77G,0.35
6,C37U U51A U69A U72C A75G,0.11
7,C37U U51A U69C,0.12
8,C37U U54G A65G,0.11
9,C37U U60A U66C,0.11
10,C37U U60G C81A,0.12
11,C37U U67C U76A A77C,0.1
12,C37U U72C G73C,1.04
13,C37U U72G U80A,0.4
14,C38A A45U U67G U69A,0.06
15,C38A C40U U80C,0.29
16,C38A G42A U49A U67C U74C,0.09
17,C38A G42A U78G U80A,0.3
18,C38A G61U U80C,0.23
19,C38A U41A A64U C68U U72C,0.05
20,C38A U48C A57G U60A A65G,0.13
21,C38A U51A A56U,0.13
22,C38A U51A U67A,0.13
23,C38A U54A U78C,0.16
24,C38A U66G U76C A77U,0.06

row,Variant,self-cleavage
1,C38A U72A U78C,0.18
2,C38G A57G U74C,0.25
3,C38G A64G A65G A75U,0.17
4,C38G C40G U41C U49C G73A U78G C81U,0.06
5,C38G G52C A75U,0.15
6,C38G U41A A56U U80A,0.05
7,C38G U43C U58C,0.15
8,C38G U54C C62A G73A,0.06
9,C38G U54C U67A,0.15
10,C38G U58G U69C U80A,0.18
11,C38G U69C U72C,0.11
12,C38U A45C U48G U51A,0.15
13,C38U A45G U74A U76C,1.11
14,C38U A45U U54A U74A,0.16
15,C38U A47C U49A A65G,0.08
16,C38U A47G C50A C62G U74A,0.16
17,C38U A47G U66C U80G,0.16
18,C38U A47G U78C C81G,0.53
19,C38U A56G C62U A64G U78A C81U,0.05
20,C38U A56G U67C,0.13
21,C38U A57C U80C,0.17
22,C38U C40U G52A,0.16
23,C38U C50U U67C,0.12
